Reference: the supplement of paper PMC8728848
Some of the results follow.

What was measured:
Assay in all cases: glycan array binding signal (z-score within array); higher = stronger binding
Conditions in all cases: glycan notation: IUPAC condensed, linker removed
[1] = target: Gal(b1-4)GlcNAc(b1-3)Gal(b1-4)GlcNAc(b1-3)Gal(b1-4)GlcNAc(b1-3)Gal(b1-4)GlcNAc(b1-3)Gal(b1-4)GlcNAc(b1-2)Man(a1-3)[Gal(b1-4)GlcNAc(b1-3)Gal(b1-4)GlcNAc(b1-3)Gal(b1-4)GlcNAc(b1-3)Gal(b1-4)GlcNAc(b1-3)Gal(b1-4)GlcNAc(b1-2)Man(a1-6)]Man(b1-4)GlcNAc(b1-4)GlcNAc
How it was run: (§1)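 Glycan array data were curated from 3228 arrays in the Consortium for Functional Glycomics database and kept only where the protein sequence was available. Glycan names were converted to IUPAC-condensed notation, and columns mapping to the same glycan were averaged. The binding signal is a within-array Z-score, averaged across arrays of the same protein sequence at different concentrations or buffers and across linkers. Negative Z-scores can be read as non-binding.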

[2] = target: Gal(b1-4)GlcNAc(b1-3)Gal(b1-4)GlcNAc(b1-3)Gal(b1-4)GlcNAc(b1-3)Gal(b1-4)GlcNAc(b1-3)Gal(b1-4)GlcNAc(b1-2)Man(a1-3)[Gal(b1-4)GlcNAc(b1-3)Gal(b1-4)GlcNAc(b1-3)Gal(b1-4)GlcNAc(b1-3)Gal(b1-4)GlcNAc(b1-3)Gal(b1-4)GlcNAc(b1-2)Man(a1-6)]Man(b1-4)GlcNAc(b1-4)[Fuc(a1-6)]GlcNAc
How it was run: as §1

[3] = target: Gal(b1-4)GlcNAc(b1-3)Gal(b1-4)GlcNAc(b1-3)Gal(b1-4)GlcNAc(b1-3)Gal(b1-4)GlcNAc(b1-3)Gal(b1-4)GlcNAc(b1-2)[Gal(b1-4)GlcNAc(b1-3)Gal(b1-4)GlcNAc(b1-3)Gal(b1-4)GlcNAc(b1-3)Gal(b1-4)GlcNAc(b1-3)Gal(b1-4)GlcNAc(b1-6)]Man(a1-6)[Gal(b1-4)GlcNAc(b1-3)Gal(b1-4)GlcNAc(b1-3)Gal(b1-4)GlcNAc(b1-3)Gal(b1-4)GlcNAc(b1-3)Gal(b1-4)GlcNAc(b1-2)Man(a1-3)]Man(b1-4)GlcNAc(b1-4)[Fuc(a1-6)]GlcNAc
How it was run: as §1

[4] = target: Gal(b1-4)GlcNAc(b1-3)Gal(b1-4)GlcNAc(b1-3)Gal(b1-4)GlcNAc(b1-3)Gal(b1-4)GlcNAc(b1-3)Gal(b1-4)GlcNAc(b1-3)Gal(b1-4)GlcNAc(b1-2)Man(a1-3)[Gal(b1-4)GlcNAc(b1-3)Gal(b1-4)GlcNAc(b1-3)Gal(b1-4)GlcNAc(b1-3)Gal(b1-4)GlcNAc(b1-3)Gal(b1-4)GlcNAc(b1-3)Gal(b1-4)GlcNAc(b1-2)Man(a1-6)]Man(b1-4)GlcNAc(b1-4)GlcNAc
How it was run: as §1

[5] = target: Gal(b1-4)GlcNAc(b1-3)Gal(b1-4)GlcNAc(b1-3)GalNAc
How it was run: as §1

[6] = target: Gal(b1-4)GlcNAc(b1-3)Gal(b1-4)GlcNAc(b1-3)[Gal(b1-4)GlcNAc(b1-3)Gal(b1-4)GlcNAc(b1-6)]GalNAc
How it was run: as §1

[7] = target: Gal(b1-4)GlcNAc(b1-3)Gal(b1-4)GlcNAc(b1-6)[Gal(b1-3)]GalNAc
How it was run: as §1

[8] = target: Gal(b1-4)GlcNAc(b1-3)Gal(b1-4)[Fuc(a1-3)GlcNAc(b1-6)]Gal(b1-4)Glc
How it was run: as §1

[9] = target: Gal(b1-4)GlcNAc(b1-3)Gal(b1-4)[Fuc(a1-3)]GlcNAc(b1-3)Gal(b1-4)[Fuc(a1-3)]GlcNAc
How it was run: as §1

[10] = target: Gal(b1-4)GlcNAc(b1-3)GalNAc
How it was run: as §1

[11] = target: Gal(b1-4)GlcNAc(b1-3)[Fuc(a1-3)GlcNAc(b1-6)]Gal(b1-4)Glc
How it was run: as §1

[12] = target: Gal(b1-4)GlcNAc(b1-3)[Gal(b1-4)GlcNAc(b1-6)]Gal(b1-4)GlcNAc
How it was run: as §1

[13] = target: Gal(b1-4)GlcNAc(b1-3)[Gal(b1-4)GlcNAc(b1-6)]GalNAc
How it was run: as §1

[14] = target: Gal(b1-4)GlcNAc(b1-3)[GlcNAc(b1-6)]Gal(b1-4)GlcNAc
How it was run: as §1

[15] = target: Gal(b1-4)GlcNAc(b1-6)Gal(b1-4)GlcNAc
How it was run: as §1

[16] = target: Gal(b1-4)GlcNAc(b1-6)GalNAc
How it was run: as §1

[17] = target: Gal(b1-4)GlcNAc(b1-6)[Gal(b1-3)]GalNAc
How it was run: as §1

[18] = target: Gal(b1-4)GlcNAc(b1-6)[Gal(b1-4)GlcNAc(b1-3)]GalNAc
How it was run: as §1

[19] = target: Gal(b1-4)GlcNAc6P
How it was run: as §1

[20] = target: Gal(b1-6)Gal
How it was run: as §1

[21] = target: Gal3S(b1-3)GalNAc
How it was run: as §1

[22] = target: Gal3S(b1-3)GlcNAc
How it was run: as §1

[23] = target: Gal3S(b1-3)[Fuc(a1-4)]GlcNAc
How it was run: as §1

[24] = target: Gal3S(b1-4)Glc
How it was run: as §1

[25] = target: Gal3S(b1-4)Glc6S
How it was run: as §1

[26] = target: Gal3S(b1-4)GlcNAc
How it was run: as §1

[27] = target: Gal3S(b1-4)GlcNAc6S
How it was run: as §1

[28] = target: Gal3S(b1-4)[Fuc(a1-3)]Glc
How it was run: as §1

[29] = target: Gal3S(b1-4)[Fuc(a1-3)]Glc6S
How it was run: as §1

[30] = target: Gal3S(b1-4)[Fuc(a1-3)]GlcNAc
How it was run: as §1

[31] = target: Gal3S(b1-4)[Fuc(a1-3)]GlcNAc6S
How it was run: as §1

[32] = target: Gal3S4S(b1-4)GlcNAc
How it was run: as §1

[33] = target: Gal3S6S(b1-4)GlcNAc
How it was run: as §1

[34] = target: Gal3S6S(b1-4)GlcNAc6S
How it was run: as §1

[35] = target: Gal4S(b1-4)GlcNAc
How it was run: as §1

[36] = target: Gal4S6S(b1-4)GlcNAc
How it was run: as §1

[37] = target: Gal6P(b1-4)GlcNAc
How it was run: as §1

[38] = target: Gal6S(b1-3)GlcNAc
How it was run: as §1

B1: PpFlo1 (Pichia pastoris) (protein)
chain: MGSSHHHHHHSSGLVPRGSHMQESGDGDISDSAYACDIDATRYDGFNATIYEFQPGDGRLTRDPVFMSTGYLNRTQLHSITGVTDPGFSIYTPGVPTTTLYGIPNVNWENLLLELKGYFRAEVSGDYGLSLRNIDDSAILFFGKETAFQCCNENSISNEASTDYSLFTIFRQEGDETTNLDSFTYTQYLEAGKYYPVRTFFVNIERHAVFNFTMTLPDGTELTDFHNYIYQFGALDEEQCQA
- glycan array binding signal (z-score) [1]: 0.832
- glycan array binding signal (z-score) [2]: 0.134
- glycan array binding signal (z-score) [3]: 0.43
- glycan array binding signal (z-score) [4]: -0.038
- glycan array binding signal (z-score) [5]: -0.379
- glycan array binding signal (z-score) [6]: 0.345
- glycan array binding signal (z-score) [7]: -0.434
- glycan array binding signal (z-score) [8]: -0.424
- glycan array binding signal (z-score) [9]: 0.121
- glycan array binding signal (z-score) [10]: -0.405
- glycan array binding signal (z-score) [11]: -0.125
- glycan array binding signal (z-score) [12]: -0.583
- glycan array binding signal (z-score) [13]: -0.202
- glycan array binding signal (z-score) [14]: -0.259
- glycan array binding signal (z-score) [15]: -0.16
- glycan array binding signal (z-score) [16]: 0.212
- glycan array binding signal (z-score) [17]: -0.175
- glycan array binding signal (z-score) [18]: 0.113
- glycan array binding signal (z-score) [19]: 0.451
- glycan array binding signal (z-score) [20]: -0.157
- glycan array binding signal (z-score) [21]: -0.546
- glycan array binding signal (z-score) [22]: 0.113
- glycan array binding signal (z-score) [23]: -0.383
- glycan array binding signal (z-score) [24]: -0.403
- glycan array binding signal (z-score) [25]: 0.353
- glycan array binding signal (z-score) [26]: 0.158
- glycan array binding signal (z-score) [27]: 0.164
- glycan array binding signal (z-score) [28]: 0.052
- glycan array binding signal (z-score) [29]: 0.934
- glycan array binding signal (z-score) [30]: 0.013
- glycan array binding signal (z-score) [31]: -0.354
- glycan array binding signal (z-score) [32]: -0.182
- glycan array binding signal (z-score) [33]: 0.214
- glycan array binding signal (z-score) [34]: 1.38
- glycan array binding signal (z-score) [35]: -0.487
- glycan array binding signal (z-score) [36]: -0.059
- glycan array binding signal (z-score) [37]: -0.185
- glycan array binding signal (z-score) [38]: 0.424
